The source of these data is paper PMC4752240.

No constants are given. Whether binding was seen depends on the method and setting. Some entries that bind do so weakly or less than the wild type. Tags and fused reporters may be left off the sequences shown.

What all share (test): two-hybrid; bait fused with the GAL4 DNA binding domain (pDEST32), prey fused with the GAL4 activation domain (pDEST22); mating of yeast strains AH109 and Y187; growth on -His (weak interaction) or -His -Ade (strong interaction); three replicates
Assay [1] addresses T1, APC8, yeast two-hybrid fusion (UniProt Q9STS3).
T1 sequence: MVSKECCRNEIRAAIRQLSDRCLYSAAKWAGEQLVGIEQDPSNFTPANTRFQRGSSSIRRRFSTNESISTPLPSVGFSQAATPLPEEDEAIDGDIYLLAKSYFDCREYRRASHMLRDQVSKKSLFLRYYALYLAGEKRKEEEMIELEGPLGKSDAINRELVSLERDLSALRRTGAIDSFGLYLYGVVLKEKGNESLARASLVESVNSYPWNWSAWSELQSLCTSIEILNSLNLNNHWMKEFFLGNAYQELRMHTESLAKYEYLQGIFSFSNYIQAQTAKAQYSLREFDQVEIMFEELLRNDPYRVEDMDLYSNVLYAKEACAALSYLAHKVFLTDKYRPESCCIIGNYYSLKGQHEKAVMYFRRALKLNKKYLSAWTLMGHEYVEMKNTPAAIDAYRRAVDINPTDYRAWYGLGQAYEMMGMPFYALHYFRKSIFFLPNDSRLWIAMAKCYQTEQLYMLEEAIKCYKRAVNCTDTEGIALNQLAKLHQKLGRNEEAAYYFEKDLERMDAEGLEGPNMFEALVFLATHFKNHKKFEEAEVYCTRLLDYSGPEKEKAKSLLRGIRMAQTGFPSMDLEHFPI

Assay [2] concerns the target T2, CDC20.1, yeast two-hybrid fusion (UniProt Q9SZA4).
T2 sequence: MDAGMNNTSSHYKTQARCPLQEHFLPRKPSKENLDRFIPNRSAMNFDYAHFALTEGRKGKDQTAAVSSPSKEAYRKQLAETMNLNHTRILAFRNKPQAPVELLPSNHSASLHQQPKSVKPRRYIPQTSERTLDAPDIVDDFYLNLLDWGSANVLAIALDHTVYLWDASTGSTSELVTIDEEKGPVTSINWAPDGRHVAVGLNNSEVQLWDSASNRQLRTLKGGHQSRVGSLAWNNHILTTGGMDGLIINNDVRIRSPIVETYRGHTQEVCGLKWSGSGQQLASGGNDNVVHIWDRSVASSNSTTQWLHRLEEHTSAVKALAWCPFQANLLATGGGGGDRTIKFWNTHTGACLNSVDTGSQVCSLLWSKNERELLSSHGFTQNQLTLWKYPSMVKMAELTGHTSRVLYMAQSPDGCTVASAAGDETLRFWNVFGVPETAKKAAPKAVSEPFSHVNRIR

In assay [3] the target is T3, TDM1 (THREE DIVISION MUTANT1), yeast two-hybrid fusion (Arabidopsis thaliana) (UniProt Q9SUC3).
T3 sequence: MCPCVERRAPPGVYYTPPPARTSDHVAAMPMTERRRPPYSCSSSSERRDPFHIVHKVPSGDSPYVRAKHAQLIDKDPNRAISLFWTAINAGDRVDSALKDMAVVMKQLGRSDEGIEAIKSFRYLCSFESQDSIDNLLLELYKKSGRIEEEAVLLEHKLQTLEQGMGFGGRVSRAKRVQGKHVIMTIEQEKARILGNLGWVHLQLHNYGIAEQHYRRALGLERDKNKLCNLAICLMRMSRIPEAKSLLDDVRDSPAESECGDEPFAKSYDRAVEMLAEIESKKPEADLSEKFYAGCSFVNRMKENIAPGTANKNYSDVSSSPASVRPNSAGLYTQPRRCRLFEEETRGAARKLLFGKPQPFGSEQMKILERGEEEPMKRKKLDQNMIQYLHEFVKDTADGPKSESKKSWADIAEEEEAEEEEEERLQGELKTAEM

In assay [4] the target is T4, APC5, yeast two-hybrid fusion (UniProt Q8H1U4).
T4 sequence: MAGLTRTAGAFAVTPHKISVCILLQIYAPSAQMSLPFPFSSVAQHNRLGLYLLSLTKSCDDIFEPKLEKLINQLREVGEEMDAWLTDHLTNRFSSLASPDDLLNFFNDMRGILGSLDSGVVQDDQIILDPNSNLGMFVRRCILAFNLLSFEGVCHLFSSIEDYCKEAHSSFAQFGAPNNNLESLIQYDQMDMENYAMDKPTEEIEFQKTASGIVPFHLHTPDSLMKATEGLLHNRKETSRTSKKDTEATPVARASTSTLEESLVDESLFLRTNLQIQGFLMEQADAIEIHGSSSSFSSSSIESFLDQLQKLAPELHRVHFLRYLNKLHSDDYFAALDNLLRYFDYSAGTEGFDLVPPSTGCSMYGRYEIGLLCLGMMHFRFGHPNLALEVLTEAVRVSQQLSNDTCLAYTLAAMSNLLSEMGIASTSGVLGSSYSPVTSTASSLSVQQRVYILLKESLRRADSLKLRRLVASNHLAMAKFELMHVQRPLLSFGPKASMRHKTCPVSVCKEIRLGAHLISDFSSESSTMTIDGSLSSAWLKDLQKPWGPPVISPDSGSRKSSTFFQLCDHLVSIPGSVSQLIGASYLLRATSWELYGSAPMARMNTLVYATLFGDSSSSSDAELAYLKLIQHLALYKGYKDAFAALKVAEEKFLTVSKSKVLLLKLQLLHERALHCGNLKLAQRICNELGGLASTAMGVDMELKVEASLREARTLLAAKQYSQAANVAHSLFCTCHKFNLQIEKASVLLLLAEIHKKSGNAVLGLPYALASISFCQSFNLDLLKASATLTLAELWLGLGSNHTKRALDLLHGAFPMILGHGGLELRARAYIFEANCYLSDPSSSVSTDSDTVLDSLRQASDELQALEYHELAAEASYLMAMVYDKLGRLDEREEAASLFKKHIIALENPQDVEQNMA

B1: TDM1 (THREE DIVISION MUTANT1), yeast two-hybrid fusion (protein, UniProt Q9SUC3 1-434)
chain: MCPCVERRAPPGVYYTPPPARTSDHVAAMPMTERRRPPYSCSSSSERRDPFHIVHKVPSGDSPYVRAKHAQLIDKDPNRAISLFWTAINAGDRVDSALKDMAVVMKQLGRSDEGIEAIKSFRYLCSFESQDSIDNLLLELYKKSGRIEEEAVLLEHKLQTLEQGMGFGGRVSRAKRVQGKHVIMTIEQEKARILGNLGWVHLQLHNYGIAEQHYRRALGLERDKNKLCNLAICLMRMSRIPEAKSLLDDVRDSPAESECGDEPFAKSYDRAVEMLAEIESKKPEADLSEKFYAGCSFVNRMKENIAPGTANKNYSDVSSSPASVRPNSAGLYTQPRRCRLFEEETRGAARKLLFGKPQPFGSEQMKILERGEEEPMKRKKLDQNMIQYLHEFVKDTADGPKSESKKSWADIAEEEEAEEEEEERLQGELKTAEM
Turning to B1, the binding entry in assay [1] was “no binding”; in assay [2], “binds”; in assay [3] it was “binds”; in assay [4], “no binding”.
